“Also recorded” adds a separate entry of the source.
Assays:
Format in all cases: in vivo
Pharmacokinetics in rats = assay: Pharmacokinetics in rats
Procedure: Pharmacokinetics in rats: Sprague-Dawley-derived rats were treated with a single subcutaneous or intravenous dose of GLP-1 MMB of SEQ ID NO 4 (3.0 mg/kg, lot #8833173) (1). Approximately 300 μl of blood were collected at various times following dosing in sodium citrate (3.8%) containing protease inhibitors (Roche Complete EDTA free, Roche Applied Science, Indianapolis, Ind.) and DPP4 inhibitors (Linco, St. Charles, Mo.). Plasma was isolated and stored at −80° until samples could be analyzed. The concentration of intact GLP-1 MMB of SEQ ID NO 4 was measured using a mesoscale discovery (MSD) technology. Briefly, plasma samples were serially diluted by BioMek Fx for a total of 4 dilutions, neat, 1:8, 1:64 and 1:512. Identical standard curves in neat plasma were included on each plate. GLP-1 MMB of SEQ ID NO 4 was captured on MSD plates by biotinylated monoclonal antibody (CNTO1626) designed to detect intact N-terminus of GLP-1 MMB of SEQ ID NO 4. Ruthenium labeled monoclonal antibody recognizing linker region on GLP-1 MMB of SEQ ID NO 4 (CNTO712) were added for detection and the luminescence responses were determined using the MSD sector imager 6000 reader. GLP-1 MMB of SEQ ID NO 4 level was calculated using sigmoidal dose-response curve (GraphPad PRISM).
(§1) Data analysis: Non-compartmental analysis (NCA) was employed to calculate the pharmacokinetic parameters of GLP-1 MMB of SEQ ID NO 4 (WinNonlin, Version 5.1, Pharsight Corporation, Mountain View, Calif.). The maximum serum concentration, Cmax and the time to reach Cmax (Tmax), were obtained from inspection of the serum concentration vs. time profiles. The area under the concentration curve (AUC) from time 0 to the last time point with quantifiable levels of GLP-1 MMB of SEQ ID NO 4 was calculated (AUC (0-7d) for rat, AUC (0-21d) for monkey), as well as the AUC from time 0 to infinity. The AUC values were obtained by linear trapezoidal integration. The terminal rate constant (λz) was determined by least-squares regression analysis of the log-linear portion of the terminal phase. The terminal half-life, t½, was calculated from the ratio of 0.693 and λz.

[1] = Pharmacokinetics in monkeys; conditions: cynomolgus monkeys, single iv, 1 mg/kg, mean
Procedure: Pharmacokinetics in monkeys: Cynomolgus monkeys were dosed intravenously with GLP-1 MMB of SEQ ID NO 4 (1.0 mg/kg, lot #8833013) at Diabetes Research Institute, University of Miami (2). The monkeys were chemically restrained with ketamine HCl (100 mg/mL, 10 mg/kg) prior to dosing and blood collections. GLP-1 MMB of SEQ ID NO 4 was administered at a dose volume of 2.2 mL/kg at a rate of 1 mL/minute. Approximately 2 mL of blood was collected at various time points following dosing in sodium citrate (3.8%) containing protease inhibitors (Roche Complete EDTA free, Roche Applied Science, Indianapolis, Ind.) and DPP4 inhibitors (Linco, St. Charles, Mo.). Plasma was isolated and stored at −80° until samples could be analyzed. GLP-1 MMB of SEQ ID NO 4 concentrations in the plasma was measured as described above.
as §1

GLP-1 receptor [2] = biological target: T1, GLP-1 receptor (Mus musculus, UniProt O35659); assay: Food intake in GLP-1R−/− and wild type mice; conditions: wild type mice, single iv, GLP-1 MMB 1 mg/kg, exendin-4 0.07 mg/kg
T1 construct: Male GLP-1R−/− and age matched wild type mice; from tissue; host or cells: whole animal (wild type mice; GLP-1R-/- mice as receptor-free control)
T1 sequence (O35659 22-463): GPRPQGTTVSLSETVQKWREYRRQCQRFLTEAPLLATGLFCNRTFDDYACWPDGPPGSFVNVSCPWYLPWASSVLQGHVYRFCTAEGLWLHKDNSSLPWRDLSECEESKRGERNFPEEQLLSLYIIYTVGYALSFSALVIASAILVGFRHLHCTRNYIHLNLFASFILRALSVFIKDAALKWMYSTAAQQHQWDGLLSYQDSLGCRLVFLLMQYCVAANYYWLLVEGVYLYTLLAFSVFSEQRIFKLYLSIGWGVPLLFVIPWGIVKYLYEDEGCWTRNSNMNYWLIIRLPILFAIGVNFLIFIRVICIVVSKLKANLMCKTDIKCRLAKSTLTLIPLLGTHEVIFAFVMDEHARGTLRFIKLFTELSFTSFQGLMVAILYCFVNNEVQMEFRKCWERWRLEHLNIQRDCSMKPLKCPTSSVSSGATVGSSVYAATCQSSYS
Description: (§2) Materials/Methods: Animals: Male GLP-1R−/− and age matched wild type mice were randomized into three treatment groups (n=5) based on body weight and fasting blood glucose.

GLP-1 receptor [3] = assay: Food intake in GLP-1R−/− and wild type mice; conditions: GLP-1R−/− mice, single iv, GLP-1 MMB 1 mg/kg, exendin-4 0.07 mg/kg
Description: as §2

GLP-1 receptor [4] = biological target: T1, GLP-1 receptor; assay: Gastric emptying in GLP-1R−/− and wild type mice; conditions: wild type mice, single iv, GLP-1 MMB 1 mg/kg, exendin-4 0.07 mg/kg
Procedure: as §2
(§3) Gastric Emptying: Mice were fasted overnight. The next morning mice were re-fed for 1 h, food intake was recorded and the mice were deprived of food for the rest of the study. Mice were dosed intravenously as discussed above. Two hours post-dosing mice were euthenized.
(§4) The stomach was exposed by laparotomy, ligated at both the pylorus and cardia and removed.
(§5) The stomach content wet weight was measured. Equation 1 was used to calculate the percent of food remaining in the stomach. (Stomach Content Wet Weight (g)/Food Intake (g))*100 Equation (1)

GLP-1 receptor [5] = assay: Gastric emptying in GLP-1R−/− and wild type mice; conditions: GLP-1R−/− mice, single iv, GLP-1 MMB 1 mg/kg, exendin-4 0.07 mg/kg
Procedure: as §2, §3, §4, §5

[6] = SD rats, single iv, 3 mg/kg, mean
[7] = SD rats, single sc, 3 mg/kg, mean

B1: GLP-1 MMB of SEQ ID NO 4: GLP-1 mimetibody having the sequence of SEQ ID NO 4 (protein)
chain: HSEGTFTSDVSSYLEGQAAKEFIEWLVKGRGGGSGGGSGTLVTNSS[human IgG4 Fc with S228P F234A L235A (EU numbers) omitted]
modifications: fusion protein of GLP-1 variant-linker 3-J region-Hinge H3-Fc
- AUC(0-7 d) (Pharmacokinetics in rats; [6]): 23.61 µg·days/mL
- AUCinf (Pharmacokinetics in rats; [6]): 23.86 µg·days/mL
- Cl (Pharmacokinetics in rats; [6]): 5.2458 mL/h/kg
- Cmax (Pharmacokinetics in rats; [6]): 53.91 µg/mL
- Vss (Pharmacokinetics in rats; [6]): 0.11007 L/kg
- t½ (Pharmacokinetics in rats; [6]): 35.5 h
- AUC(0-7 d) (Pharmacokinetics in rats; [7]): 5.04 µg·days/mL
- AUCinf (Pharmacokinetics in rats; [7]): 5.20 µg·days/mL
- Cmax (Pharmacokinetics in rats; [7]): 2.29 µg/mL
- F % (Pharmacokinetics in rats; [7]): 21.85%
- Tmax (Pharmacokinetics in rats; [7]): 19.9 h
- t½ (Pharmacokinetics in rats; [7]): 41.5 h
- terminal half-life (Pharmacokinetics in rats; rats, iv dosing, 3.0 mg/kg): 36 h
- bioavalibility (Pharmacokinetics in rats; rats, sc administration, 3.0 mg/kg): approximately 22%
- terminal half-life (Pharmacokinetics in rats; rats, sc dosing, 3.0 mg/kg): 40.8 h
- AUC(0-21) [1]: 41.92 µg·days/mL
- AUCinf [1]: 42.05 µg·days/mL
- Cl [1]: 1.034 mL/h/kg
- Cmax [1]: 40.09 µg/mL
- Vss [1]: 0.05018 L/kg
- Vz [1]: 0.1054 L/kg
- t½ [1]: 70.3 h
- 24 hour cumulative food intake compared to CNTO1996 (GLP-1 receptor [2]): reduced food intake; also recorded: statistically significant reduction
- food intake (GLP-1 receptor [3]): no effect
- stomach content (percent of food remaining) 2 h after dosing compared to CNTO1996 (GLP-1 receptor [4]): inhibited gastric emptying; also recorded: statistically significant increase
- gastric emptying (GLP-1 receptor [5]): no effect

— US8071103B2, “Pharmaceutical composition comprising a human GLP-1 mimetibody” (Centocor, Inc., priority 2006, dated 2011)
